This is one part of the list.

This test addresses T1, MBP-FoxP1dN (Mus musculus, UniProt P58462 326-579).
T1 sequence: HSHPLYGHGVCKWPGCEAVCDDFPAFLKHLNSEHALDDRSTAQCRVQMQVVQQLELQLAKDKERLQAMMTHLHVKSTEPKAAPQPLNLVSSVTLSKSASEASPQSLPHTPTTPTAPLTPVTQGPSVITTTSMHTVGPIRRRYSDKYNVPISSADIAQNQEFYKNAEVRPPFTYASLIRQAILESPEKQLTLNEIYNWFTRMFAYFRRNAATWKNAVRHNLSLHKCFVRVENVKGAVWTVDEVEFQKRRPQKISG
Briefly: PD-seq (MBP pull-down with sequencing); 20 mM Tris-HCl pH 7.5, 100 mM NaCl, 1.5 mM MgCl2, 0.4 uM protein, 0.1 uM dsDNA library, 30 min, room temperature, amylose pull-down; high values mean tight binding. Particulars: protein: recombinant; tags: His6-MBP; chain copies: 2; dsDNA, one strand shown. The method, boiled down: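 Binding is reads-per-million enrichment of pull-down over input, with replicates pooled. It comes from 30 min room-temperature incubation in Tris pH 7.5 buffer with NaCl and MgCl2 of 0.4 µM His6-MBP-tagged, N-terminally truncated mouse FoxP3 or FoxP1 fragment from E. coli with 0.1 µM Klenow-filled degenerate double-stranded DNA library, followed by amylose resin capture, three washes and Illumina sequencing of the released DNA.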
As for “GATGATTGTTCTCCCAGCTGATGAATTCATCCTATCGAGTAAACAAATTTTCCTAATCTTTCTGTTCAAGCGCCATCTAC”, the binding signal is 0.86 RPM ratio (pull-down/input).

With “GATGATTGTTCTCCCAGCTGATGAATTGAACTGCTCGAGTAAACAAATTTTCCTAATCTTTCTGTTCAAGCGCCATCTAC”, the binding signal was 0.793 RPM ratio (pull-down/input).

Take “GATGATTGTTCTCCCAGCTGATGAATTTGGAACATCGAGTAAACAAATTTTCCTAATCTTTCTGTTCAAGCGCCATCTAC”: the binding signal was 1.08 RPM ratio (pull-down/input).

As to “GATGATTGTTCTCCCAGCTGATGAATTAACCGGATCGAGTAAACAAATTTTCCTAATCTTTCTGTTCAAGCGCCATCTAC”, the binding signal is 0.846 RPM ratio (pull-down/input).

As for “GATGATTGTTCTCCCAGCTGATGAATTCGTCTACTCGAGTAAACAAATTTTCCTAATCTTTCTGTTCAAGCGCCATCTAC”, the binding signal was 0.938 RPM ratio (pull-down/input).

For the sequence “GATGATTGTTCTCCCAGCTGATGAATTCTCGGAGTCGAGTAAACAAATTTTCCTAATCTTTCTGTTCAAGCGCCATCTAC”, the binding signal was 0.786 RPM ratio (pull-down/input).

On to “GATGATTGTTCTCCCAGCTGATGAATTTGCTTCGTCGAGTAAACAAATTTTCCTAATCTTTCTGTTCAAGCGCCATCTAC”, for which the binding signal is 0.979 RPM ratio (pull-down/input).

In the case of “GATGATTGTTCTCCCAGCTGATGAATTAATAATATCGAGTAAACAAATTTTCCTAATCTTTCTGTTCAAGCGCCATCTAC”, the binding signal is 1.51 RPM ratio (pull-down/input).

With “GATGATTGTTCTCCCAGCTGATGAATTCCGCTGTTCGAGTAAACAAATTTTCCTAATCTTTCTGTTCAAGCGCCATCTAC”, the binding signal was 0.908 RPM ratio (pull-down/input).

Consider “GATGATTGTTCTCCCAGCTGATGAATTAGGACTTTCGAGTAAACAAATTTTCCTAATCTTTCTGTTCAAGCGCCATCTAC”, for which the binding signal is 0.928 RPM ratio (pull-down/input).

With “GATGATTGTTCTCCCAGCTGATGAATTGATCCACTCGAGTAAACAAATTTTCCTAATCTTTCTGTTCAAGCGCCATCTAC”, the binding signal is 1 RPM ratio (pull-down/input).

In the case of “GATGATTGTTCTCCCAGCTGATGAATTCCAACTATCGAGTAAACAAATTTTCCTAATCTTTCTGTTCAAGCGCCATCTAC”, the binding signal is 0.893 RPM ratio (pull-down/input).

Consider “GATGATTGTTCTCCCAGCTGATGAATTACGGTTGTCGAGTAAACAAATTTTCCTAATCTTTCTGTTCAAGCGCCATCTAC”, for which the binding signal was 1.24 RPM ratio (pull-down/input).

Regarding “GATGATTGTTCTCCCAGCTGATGAATTATAAACGTCGAGTAAACAAATTTTCCTAATCTTTCTGTTCAAGCGCCATCTAC”, the binding signal was 1.18 RPM ratio (pull-down/input).

As to “GATGATTGTTCTCCCAGCTGATGAATTGCGAAGTTCGAGTAAACAAATTTTCCTAATCTTTCTGTTCAAGCGCCATCTAC”, the binding signal was 1.06 RPM ratio (pull-down/input).

As for “GATGATTGTTCTCCCAGCTGATGAATTGCAGCTTTCGAGTAAACAAATTTTCCTAATCTTTCTGTTCAAGCGCCATCTAC”, the binding signal is 1.24 RPM ratio (pull-down/input).

“GATGATTGTTCTCCCAGCTGATGAATTGGACAGTTCGAGTAAACAAATTTTCCTAATCTTTCTGTTCAAGCGCCATCTAC”: the binding signal was 0.817 RPM ratio (pull-down/input).

As for “GATGATTGTTCTCCCAGCTGATGAATTAAAGTCCTCGAGTAAACAAATTTTCCTAATCTTTCTGTTCAAGCGCCATCTAC”, the binding signal is 0.752 RPM ratio (pull-down/input).

On to “GATGATTGTTCTCCCAGCTGATGAATTTGTCTAATCGAGTAAACAAATTTTCCTAATCTTTCTGTTCAAGCGCCATCTAC”, for which the binding signal is 1.28 RPM ratio (pull-down/input).

Regarding “GATGATTGTTCTCCCAGCTGATGAATTCCTTGTTTCGAGTAAACAAATTTTCCTAATCTTTCTGTTCAAGCGCCATCTAC”, the binding signal was 0.969 RPM ratio (pull-down/input).

On to “GATGATTGTTCTCCCAGCTGATGAATTTGCGCCATCGAGTAAACAAATTTTCCTAATCTTTCTGTTCAAGCGCCATCTAC”, for which the binding signal is 1.07 RPM ratio (pull-down/input).

“GATGATTGTTCTCCCAGCTGATGAATTCGTGTGTTCGAGTAAACAAATTTTCCTAATCTTTCTGTTCAAGCGCCATCTAC”: the binding signal was 1.22 RPM ratio (pull-down/input).

For the sequence “GATGATTGTTCTCCCAGCTGATGAATTGAACATCTCGAGTAAACAAATTTTCCTAATCTTTCTGTTCAAGCGCCATCTAC”, the binding signal was 0.875 RPM ratio (pull-down/input).

In the case of “GATGATTGTTCTCCCAGCTGATGAATTCGTAGTGTCGAGTAAACAAATTTTCCTAATCTTTCTGTTCAAGCGCCATCTAC”, the binding signal was 0.887 RPM ratio (pull-down/input).

On to “GATGATTGTTCTCCCAGCTGATGAATTCTGCTACTCGAGTAAACAAATTTTCCTAATCTTTCTGTTCAAGCGCCATCTAC”, for which the binding signal was 0.879 RPM ratio (pull-down/input).

Regarding “GATGATTGTTCTCCCAGCTGATGAATTGAGTCTATCGAGTAAACAAATTTTCCTAATCTTTCTGTTCAAGCGCCATCTAC”, the binding signal is 0.848 RPM ratio (pull-down/input).

With “GATGATTGTTCTCCCAGCTGATGAATTTGCATCTTCGAGTAAACAAATTTTCCTAATCTTTCTGTTCAAGCGCCATCTAC”, the binding signal is 1.89 RPM ratio (pull-down/input).

On to “GATGATTGTTCTCCCAGCTGATGAATTGACTCCTTCGAGTAAACAAATTTTCCTAATCTTTCTGTTCAAGCGCCATCTAC”, for which the binding signal was 0.989 RPM ratio (pull-down/input).

“GATGATTGTTCTCCCAGCTGATGAATTTTAAAGGTCGAGTAAACAAATTTTCCTAATCTTTCTGTTCAAGCGCCATCTAC”: the binding signal was 0.723 RPM ratio (pull-down/input).

Regarding “GATGATTGTTCTCCCAGCTGATGAATTTATTTCGTCGAGTAAACAAATTTTCCTAATCTTTCTGTTCAAGCGCCATCTAC”, the binding signal was 1.27 RPM ratio (pull-down/input).

Take “GATGATTGTTCTCCCAGCTGATGAATTTTAATTGTCGAGTAAACAAATTTTCCTAATCTTTCTGTTCAAGCGCCATCTAC”: the binding signal is 1.47 RPM ratio (pull-down/input).

As for “GATGATTGTTCTCCCAGCTGATGAATTTGGAATGTCGAGTAAACAAATTTTCCTAATCTTTCTGTTCAAGCGCCATCTAC”, the binding signal was 0.903 RPM ratio (pull-down/input).

On to “GATGATTGTTCTCCCAGCTGATGAATTGAGCCCATCGAGTAAACAAATTTTCCTAATCTTTCTGTTCAAGCGCCATCTAC”, for which the binding signal is 0.889 RPM ratio (pull-down/input).

For the sequence “GATGATTGTTCTCCCAGCTGATGAATTAAGATACTCGAGTAAACAAATTTTCCTAATCTTTCTGTTCAAGCGCCATCTAC”, the binding signal is 1 RPM ratio (pull-down/input).

Regarding “GATGATTGTTCTCCCAGCTGATGAATTTGACAATTCGAGTAAACAAATTTTCCTAATCTTTCTGTTCAAGCGCCATCTAC”, the binding signal was 1.02 RPM ratio (pull-down/input).

For “GATGATTGTTCTCCCAGCTGATGAATTCATTTGTTCGAGTAAACAAATTTTCCTAATCTTTCTGTTCAAGCGCCATCTAC”, the binding signal was 0.984 RPM ratio (pull-down/input).

Consider “GATGATTGTTCTCCCAGCTGATGAATTTTCACGCTCGAGTAAACAAATTTTCCTAATCTTTCTGTTCAAGCGCCATCTAC”, for which the binding signal is 0.952 RPM ratio (pull-down/input).

As for “GATGATTGTTCTCCCAGCTGATGAATTGACCTACTCGAGTAAACAAATTTTCCTAATCTTTCTGTTCAAGCGCCATCTAC”, the binding signal was 0.881 RPM ratio (pull-down/input).

For “GATGATTGTTCTCCCAGCTGATGAATTCCCAGGATCGAGTAAACAAATTTTCCTAATCTTTCTGTTCAAGCGCCATCTAC”, the binding signal is 0.749 RPM ratio (pull-down/input).

As to “GATGATTGTTCTCCCAGCTGATGAATTCTAACAATCGAGTAAACAAATTTTCCTAATCTTTCTGTTCAAGCGCCATCTAC”, the binding signal was 1.52 RPM ratio (pull-down/input).

The values above are taken from PMC12820563, “FoxP3 forms a head-to-head dimer in vivo and stabilizes its multimerization on adjacent microsatellites”.
